Laboratory results taken from paper PMC12136788.
The other results are listed elsewhere or left out.

B1: chr9:121180810:121180911:-|3pUTR|ENSG00000119396|msi1|FALSE|unique (ssRNA)
RNA: GGGAGUUCUACAGUCCGACGAUCUUUGGAUAAAUUUCCUGUUGUGUGGGUGGCAUUUUUCUUAACGAGAUUUGCUUCUGUCUUAGCCUCACACAGGGAAAAUAUCCAUUUAUCUUCUCUCUCGUGCUUAAUUAAUAGCUUUAUCAACAGAGGAUUGAGCAUCA
B2: chr5:150709129:150709230:-|3pUTR|ENSG00000132912|msi1|FALSE|unique (ssRNA)
RNA: GGGAGUUCUACAGUCCGACGAUCCACAAAACACUUUGAUCAUAAACUUUUUUCUUCAGAAGCCAAACUAACUUGCAGAAUAAUAGAGCCACUGGUUUAAUGUUUCCUCAAGAUAGGUUUUAGUGUAAGCUAGUAUUCUGUGUGCAACAGAGGAUUGAGCAUCA
B3: chr11:130405560:130406128:-|CDS|ENSG00000134917|control|control|control (ssRNA)
RNA: GGGAGUUCUACAGUCCGACGAUCGCUGGGGGACUGGUCUGAGUGCUCUAGCACCUGCGGGGCCGGCUGGCAGAGGCGAACUGUAGAGUGCAGGGACCCCUCCGGCCAGGCCUCUGCCACCUGCAACAAGGCUCUGAAACCCGACAACAGAGGAUUGAGCAUCA
B4: chr16:84177846:84179851:-|three_prime_utr|ENSG00000103168|control|control|control (ssRNA)
RNA: GGGAGUUCUACAGUCCGACGAUCGCAGAGAGACCUGGGCUCCCUCCCUGCGGCAGAGCCACCCCCUGCACCCGAGUCAGGCCUAGAGGACAAGCUCAGUGAGCGCCUGGGGGAAGCCUGGGCAGGCCGAGGGGCUGCCUGGUGCAACAGAGGAUUGAGCAUCA
B5: chr1:113706032:113706133:-|CDS|ENSG00000116793|unk|total|mutant (ssRNA)
RNA: GGGAGUUCUACAGUCCGACGAUCCAAUGCCUAUCAGCAAGGAGCCGGUUAUCAGAUGCUGGGAAAUGUUGUCACUAUUGGAUCCGCAUUUUUUCCAUUCUUACAUCGACUUUUCCGUGAGAAGAGCCUUGACCAACUAAAGUCCAACAGAGGAUUGAGCAUCA
B6: ENSG00000124766:be:win_3951|3pUTR|ENSG00000124766|bound_else_gene|NA|bound_elsewhere_windowed (ssRNA)
RNA: GGGAGUUCUACAGUCCGACGAUCGUUUGGGGGAAAAAAAAGAAAAAAUCAUGCCAGCUAAUCAUGUCAAGUUCACUGCCUGUCAGAUUGUUGAUAUAUACCUUCUGUAAAUAACUUUUUUUGAGAAGGAAAUAAAAUCAGCUGCAACAGAGGAUUGAGCAUCA
B7: ENSG00000198589:be:win_1|CDS|ENSG00000198589|bound_else_gene|NA|bound_elsewhere_windowed (ssRNA)
RNA: GGGAGUUCUACAGUCCGACGAUCAUGGCUAGCGAAGACAAUCGUGUCCCUUCCCCGCCACCAACAGGUGAUGACGGGGGAGGUGGAGGGAGAGAAGAAACCCCUACUGAAGGGGGUGCAUUGUCUCUGAAACCAGGGCUCCCCCAACAGAGGAUUGAGCAUCA
B8: chr1:200665936:200666740:-|CDS|ENSG00000118197|control|control|control (ssRNA)
RNA: GGGAGUUCUACAGUCCGACGAUCCUGGGAAUUUUAGUUCAAGGGCAAGAAGUCACCAGGCCCAUUAUUGACUUUGAACAUUGUAGUCUCCCUGAGGUCUUAAAUCACAACUUGAAGAAAUCAGGCUAUGAGGUGCCAACUCCCCAACAGAGGAUUGAGCAUCA
B9: chr15:59031169:59031386:+|CDS|ENSG00000157450|unk|total|mutant (ssRNA)
RNA: GGGAGUUCUACAGUCCGACGAUCACACCAAGUGAUGAAGAUAAUGAUUCCUCUUUCCGUGAUUGUCUUUCUUCUCCUUCAUCCCGUCUGCAUUUUGGAGAUUCUGAUACUGUGACUUCAGAUGAGGAUAAAGAAGUCUCUGUACAACAGAGGAUUGAGCAUCA
B10: chr20:50584425:50584526:+|3pUTR|ENSG00000196396|msi1|total|mutant (ssRNA)
RNA: GGGAGUUCUACAGUCCGACGAUCACCUCCUAUCCUUGGAGAGCAGCUGGCUCUCCACCUUGUUACACAUUAUGUCCGAGAGGCCGCGAGCUGCUCUGCUAUAUGCCUUAAGCCAAUAUUUACUCAUCAGGUCAUUAUUUUUUACAACAGAGGAUUGAGCAUCA
B11: chr2:73761781:73762859:-|three_prime_utr|ENSG00000144048|control|control|control (ssRNA)
RNA: GGGAGUUCUACAGUCCGACGAUCUAUUCACACAGGAGGUAUUCUUGGAAUGUGAAGCCCAAUGCCAGUCGGGCAGCCCAGGAUAGAAGAAGGUGGUAUCCUUAUAAUUACUCCAGACUCUCCUAUCCAGCCUGUUGGGAAUGGCAACAGAGGAUUGAGCAUCA
B12: chr4:55870735:55870847:+|CDS|ENSG00000090989|unk|total|mutant (ssRNA)
RNA: GGGAGUUCUACAGUCCGACGAUCGGCAUCUGAAAAACAAGUCAACAUCCUGAUGAAAUUGCCCGAUGAGGCUCUAAAGGAGGCCGAUCAGAUUGAAUUGAAACUGAGCAGUUAUGAGGAAAUGCUCCAAAGUGUAAAAGAACACAACAGAGGAUUGAGCAUCA
B13: chr20:37404728:37404829:+|3pUTR|ENSG00000197122|msi1|total|mutant (ssRNA)
RNA: GGGAGUUCUACAGUCCGACGAUCGGCCUCUGCAACUGCUCAGCUCUGGUCCAGGCCCUGUGGCAGGACACACAUGGUGAGCCCCGCCCUGGGACAUCAGGAGACUGGGCUCUGGCUCUGUUCGGCCUUUGGGUGUGUGGUGGACAACAGAGGAUUGAGCAUCA
B14: chr12:100625254:100625355:+|3pUTR|ENSG00000139354|unk|total|mutant (ssRNA)
RNA: GGGAGUUCUACAGUCCGACGAUCAUAUGUAUUAAAUAUGGAGUUCAUAUACCUGCUAAUAUCAACGGUGGUGCUCUUACUAUCCGUUAAUUGCAUUUUGGUUAAAAAAAAAAAAGCAACAGUUUGGCACUUGUCCUACAAAAGCAACAGAGGAUUGAGCAUCA
B15: chr9:96818597:96818698:-|CDS|ENSG00000196597|unk|FALSE|unique (ssRNA)
RNA: GGGAGUUCUACAGUCCGACGAUCGGAGAAACCAUUCGAAUGUCAUGAAUGUGGGAAAUCUUUUAACUAUAAGUCAAUCCUCAUAGUGCAUCAGAGAACUCACACAGGGGAGAAACCUUUUGAAUGUAAUGAAUGCGGGAAAUCCAACAGAGGAUUGAGCAUCA
B16: ENSG00000198589:be:win_451|CDS|ENSG00000198589|bound_else_gene|NA|bound_elsewhere_windowed (ssRNA)
RNA: GGGAGUUCUACAGUCCGACGAUCCUUUUGGUUGACAUGUUGGGAGUGCUGGCUAGCUAUAAUUUGACAGUUCGCGAGCUAAAGCUUUUCUUCAGUAAACUUCAAGGAGAUAAAGGACGAUGGCCUCCACAUGCUGGGAAGUUGCAACAGAGGAUUGAGCAUCA
B17: chr6:134965076:134965177:-|3pUTR|ENSG00000112339|unk|total|mutant (ssRNA)
RNA: GGGAGUUCUACAGUCCGACGAUCAAAGGAACAAUGUGCAAUUGAUAUGUUUUCCGAUGAGAGAGAAAAAUUAAAGCUAAAAUCCGCUGCAAAGAAGUAUUAAUAAUCACCUCUGCAAAAAUUCUAAGUUGCCAACUGGCAAAGCAACAGAGGAUUGAGCAUCA
B18: ENSG00000107863:be:win_801|CDS|ENSG00000107863|bound_else_gene|NA|bound_elsewhere_windowed (ssRNA)
RNA: GGGAGUUCUACAGUCCGACGAUCCAAUGAAAGUGUAAGGACUGUCAUUGUGCCUUCUGAGAAGGUUGUAGAUUUGUUAUCCAAUAGAAACAACCAUACAGGUCCUUCACAUAGAACUGAAGAAGUGAGGUAUGGCGUGAGUGACAACAGAGGAUUGAGCAUCA
B19: ENSG00000124766:be:win_3901|3pUTR|ENSG00000124766|bound_else_gene|NA|bound_elsewhere_windowed (ssRNA)
RNA: GGGAGUUCUACAGUCCGACGAUCAAUAUGCCGUGUAGAAUAUUUGUCUUAAAAUUCAAGGCCACAAAAACAAUGUUUGGGGGAAAAAAAAGAAAAAAUCAUGCCAGCUAAUCAUGUCAAGUUCACUGCCUGUCAGAUUGUUGACAACAGAGGAUUGAGCAUCA
B20: chr17:59694590:59694691:+|3pUTR|ENSG00000141367|msi1|FALSE|unique (ssRNA)
RNA: GGGAGUUCUACAGUCCGACGAUCCUUGUGUGUGUUUACUAACCCUUCCCUGAGGUUUGUGUAUGUUGGAUAUUGUGGUGUUUUAGAUCACUGAGUGUACAGAAGAGAGAAAUUCAAACAAAAUAUUGCUGUUCUUCAGUUUUGCAACAGAGGAUUGAGCAUCA
B21: chr3:179334266:179334377:+|CDS|ENSG00000121864|unk|FALSE|unique (ssRNA)
RNA: GGGAGUUCUACAGUCCGACGAUCUUAUUUAUGUCAAUAUUGUGAAUAUUCAACAGGACAAAUUGAAGAUCUUAAAAUUCAUCUAGAUUUCAAGCAUUCAGCUGACUUGCCUCAUAAAUGUAGUGACUGCUUGAUGAGGUUUGGCAACAGAGGAUUGAGCAUCA
B22: chr3:62294290:62294391:+|3pUTR|ENSG00000144724|msi1|FALSE|unique (ssRNA)
RNA: GGGAGUUCUACAGUCCGACGAUCAACUAGUCCUCUAAAAAUUCCCUAUUACUCCUAUAGCAAUCUAAUAAAAACUACCUACAUAGUUACUGUUUUCUUUCCUUCUUUGCCAAAUGUUUUAUAAUAAAUCUCUUAAUUACAUACCAACAGAGGAUUGAGCAUCA

Target: MSI1 full-length (mouse, UniProt Q61474 1-362)
Test: nsRBNS (natural sequence RNA bind-n-seq); RBNS binding buffer (assumed for nsRBNS): 25 mM Tris pH 7.5, 150 mM KCl, 3 mM MgCl2, 0.01% Triton X-100, 500 ug/ml BSA, 20 U/ml SUPERase-In, 4 C; UNK is unkempt and MSI1 is Musashi-1; names of the RNAs are library labels; protein concentration not given here; high values mean tight binding

Chain of UniProt Q61474 (Q61474 whole entry): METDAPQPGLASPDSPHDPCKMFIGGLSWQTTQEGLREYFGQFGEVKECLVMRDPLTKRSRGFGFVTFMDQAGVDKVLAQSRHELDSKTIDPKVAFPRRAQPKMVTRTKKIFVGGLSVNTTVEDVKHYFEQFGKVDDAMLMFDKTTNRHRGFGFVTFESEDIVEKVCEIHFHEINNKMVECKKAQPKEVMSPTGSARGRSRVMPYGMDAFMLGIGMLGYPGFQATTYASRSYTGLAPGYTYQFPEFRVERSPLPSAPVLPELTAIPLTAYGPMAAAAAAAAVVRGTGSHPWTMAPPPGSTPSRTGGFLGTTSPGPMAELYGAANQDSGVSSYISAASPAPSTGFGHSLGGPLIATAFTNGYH

| Binder | binding signal [enrichment R] |
| --- | --- |
| B1 | 1.11 |
| B2 | 1.47 |
| B3 | 0.472 |
| B4 | 0.54 |
| B5 | 0.27 |
| B6 | 0.499 |
| B7 | 0.333 |
| B8 | 0.563 |
| B9 | 0.203 |
| B10 | 4.65 |
| B11 | 0.407 |
| B12 | 0.296 |
| B13 | 0.334 |
| B14 | 0.371 |
| B15 | 0.426 |
| B16 | 0.347 |
| B17 | 0.346 |
| B18 | 1.34 |
| B19 | 0.467 |
| B20 | 0.615 |
| B21 | 0.511 |
| B22 | 32 |
